# Results taken from article PMC4336329 (PLoS ONE, 2015).
# About 14,000 (4.5%) of roughly 310,000 compounds showed an effect of 50% or more. Effects have a minus sign here. Some of the results follow.
# Target: human ether-à-go-go-related gene (hERG) potassium channel (human, UniProt Q12809)
# Test: primary screen, population patch clamp on CHO cells stably expressing hERG
# 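Also: peak tail current of the secondary pulse compared with the same well before compound.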
# Sequence of human ether-à-go-go-related gene (hERG) potassium channel (Q12809 whole entry, looked up): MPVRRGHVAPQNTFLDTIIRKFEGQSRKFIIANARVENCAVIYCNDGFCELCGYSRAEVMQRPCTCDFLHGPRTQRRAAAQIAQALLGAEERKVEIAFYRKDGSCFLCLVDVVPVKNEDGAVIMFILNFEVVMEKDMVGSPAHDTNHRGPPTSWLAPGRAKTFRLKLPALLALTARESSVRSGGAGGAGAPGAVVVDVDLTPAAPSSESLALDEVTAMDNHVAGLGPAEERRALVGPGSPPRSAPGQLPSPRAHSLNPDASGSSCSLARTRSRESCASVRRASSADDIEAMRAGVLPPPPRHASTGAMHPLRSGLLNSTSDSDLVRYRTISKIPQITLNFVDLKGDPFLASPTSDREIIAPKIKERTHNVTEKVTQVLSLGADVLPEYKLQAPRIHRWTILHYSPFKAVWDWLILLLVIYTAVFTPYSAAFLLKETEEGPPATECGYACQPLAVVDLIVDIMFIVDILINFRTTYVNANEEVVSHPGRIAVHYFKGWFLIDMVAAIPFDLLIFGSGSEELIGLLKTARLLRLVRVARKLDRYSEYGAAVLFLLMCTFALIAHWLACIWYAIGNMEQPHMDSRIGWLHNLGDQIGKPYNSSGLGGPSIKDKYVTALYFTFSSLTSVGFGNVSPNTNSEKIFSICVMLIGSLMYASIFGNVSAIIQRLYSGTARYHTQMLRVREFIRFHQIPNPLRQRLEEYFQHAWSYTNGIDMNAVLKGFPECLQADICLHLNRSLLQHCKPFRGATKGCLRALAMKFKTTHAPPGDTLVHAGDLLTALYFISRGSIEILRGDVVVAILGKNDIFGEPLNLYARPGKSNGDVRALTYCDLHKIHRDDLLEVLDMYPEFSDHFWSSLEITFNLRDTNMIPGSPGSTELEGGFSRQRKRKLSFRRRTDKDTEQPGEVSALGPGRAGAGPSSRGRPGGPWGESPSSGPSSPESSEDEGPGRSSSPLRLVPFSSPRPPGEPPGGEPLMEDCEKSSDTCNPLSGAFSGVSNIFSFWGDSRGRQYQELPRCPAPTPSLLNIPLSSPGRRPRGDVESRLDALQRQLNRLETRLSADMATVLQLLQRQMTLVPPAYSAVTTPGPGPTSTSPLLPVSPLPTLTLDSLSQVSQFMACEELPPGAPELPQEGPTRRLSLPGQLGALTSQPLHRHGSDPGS
row,SMILES,"hERG current change (%, negative = inhibition) at 10uM"
1,O=C(CN1C(=O)c2ccccc2C1=O)N1CCN(C2c3ccccc3-c3ccccc32)CC1,-23.1%
2,COc1cc(OC)nc(/N=C/NO)n1,9.03%
3,COc1ccc(NCN2C(=O)CCC2=O)cc1,2.65%
4,COc1ccc(NC(=O)Cn2nnc(-c3ccccc3NS(=O)(=O)c3ccccc3)n2)cc1,3.03%
5,NC(=O)C(=O)N/N=C/c1c2ccccc2cc2ccccc12,-11.1%
6,c1ccc(-c2cn(C[C@H]3CC[C@H](Cn4cc(-c5ccccn5)nn4)O3)nn2)nc1,-9.3%
7,O=C1C2C3C=CC(CC3)C2C(=O)N1c1ccc(Br)cc1[N+](=O)[O-] (stereo not shown),19.4%
8,Cc1ccc(OC(C)C(=O)Nc2ccccc2C(=O)NCc2cccnc2)cc1C (stereo not shown),-16.9%
9,CCCC(=O)Nc1cnc(NC(=O)c2cccc(F)c2)cc1C,-6.18%
10,C=CCn1c(O)c(N=NC(=S)Nc2ccccc2F)c2ccccc21,16.2%
11,CCOc1cc(C(=O)NCCCn2ccnc2)cc(OCC)c1OCC,-0.536%
12,O=C1N(c2ccccc2)C(c2ccccc2)N2CCCN12 (stereo not shown),1.78%
13,CCN(CC)CC(O)COc1ccccc1C(=O)CCc1ccccc1 (stereo not shown),-3.49%
14,C/C(=N\NC(=O)CN(c1ccccc1Br)S(C)(=O)=O)c1cccs1,20.4%
15,Cc1cc(C)c2nc(NC(=O)c3cc(C)on3)sc2c1,5.04%
16,Cc1ccc(OCc2ccc(C(=O)O)o2)cc1C,1.76%
17,CCCOc1ccc(N2CC(C(=O)Nc3ncccc3C)CC2=O)cc1 (stereo not shown),-8.03%
18,O=C(NCc1ccccc1)NC1(C(=O)Nc2ccc3c(c2)OCCO3)CCCCC1,2.32%
19,CC(C)(C)c1ccc(Oc2coc3cc(OCC(=O)O)ccc3c2=O)cc1,-20.9%
20,CCN(CC)CCCn1c2c(c(SCC(=O)Nc3nc4ccccc4s3)nc1=O)CCC2,-71.2%
21,CCOC(=O)CC(C#N)c1c[nH]c2ccccc12 (stereo not shown),20.6%
22,COc1ccc(CN2CCN(Cc3csc(C(C)=O)c3)CC2CCO)c(C)c1C (stereo not shown),-58.1%
23,COc1ccc(-c2ccc(C(=S)N3CCN(C(C)=O)CC3)o2)cc1,-40.5%
24,COc1ccc(C2c3ccc(O)cc3Oc3ncn4nc(-c5ccccn5)nc4c32)cc1OC (stereo not shown),-71.3%
25,COc1ccc(OCCCC(=O)Oc2ccc(OC)cc2)cc1,0.9%
